For 102 compounds, IFI results are on record in ChEMBL document CHEMBL1156829.

Whole data set: some 5,400 compounds, median “IFI” near 2, cut for the highest 2% near 22. Some of the results follow.

The nature of the test: NOVARTIS: Inhibition Frequency Index (IFI) - the number of HTS assays where a compound showed > 50% inhibition/induction, expressed as a percentage of the number of assays in which the compound was tested. It is filed as functional.
`CCOc1cccc(C2=Nc3cc(C(=O)NC(C)C)ccc3CN2CC2CCCCC2)c1`: the IFI was determined as 1.24%.
Regarding `O=C(CSc1nc2ccccc2c(=O)n1C1CC1)Nc1cc(C(F)(F)F)ccc1Cl`, the IFI was 0%.
With `CCOc1cc(-c2nnc3[nH]c(=O)n(C)c(=O)c3n2)ccc1OC(C)C`, the IFI worked out at 4.44%.
As for `CCCNC1=C(c2ccc(OC)cc2)C(=O)c2ccccc21`, the IFI was determined as 0%.
With `CCOC(=O)C(=O)N1c2ccc(C)cc2C(C)(c2ccccc2)CC1(C)C` (configuration not stated), the IFI is 1.07%.
The compound `O=C(CSc1ccc2nnc(-c3cccs3)n2n1)Nc1ccc2c(c1)OCCO2` came in with an IFI of 4.17%.
In the case of `CSC1=NC(=Nc2c(C)cccc2C)C2(CCC(C(C)(C)C)CC2)N1c1ccc(Cl)cc1` (configuration not stated) it was 0%; in that of `COc1cc(OC)cc(C(=O)NCc2n[nH]c(=S)n2-c2ccc(Br)cc2)c1`, 2.3%.
For `C=CCC1(Nc2ccccc2)CCCCC1`, the IFI is 0%.
In the case of `CC(=O)OC1C(NC(=O)c2cc([N+](=O)[O-])c(N(C)C)c([N+](=O)[O-])c2)OC(C(=O)N2CCOCC2)C(OC(C)=O)C1OC(C)=O` (configuration not stated), the IFI is 0%.
Turning to `CC(=O)NC(CO)C(O)c1ccc([N+](=O)[O-])cc1` (configuration not stated), the IFI is 0%.
`COc1ccc(CCN2CCC(NCc3cccc(N(C)C)c3)CC2)cc1`: the IFI came to 0%.
In the case of `O=C1Nc2ccc(S(=O)(=O)Nc3ccc(NS(=O)(=O)c4ccc5c6c(cccc46)C(=O)N5)cc3)c3cccc1c23` it was 2.08%; in that of `CC(C)CNc1nc(NCCCN2CCCC2)ncc1C(=O)NCc1ccccc1`, 2.86%.
The value for `COc1ccc(C2C(C(C)=O)=C(O)C(=O)N2CCCn2ccnc2)c(OC)c1` (configuration not stated) was 0%; that for `CC1=C(C(=O)Nc2ccc(C)cc2C)C(c2ccc([N+](=O)[O-])cc2)n2ncc(C(=O)Nc3ccc(F)cc3)c2N1` (configuration not stated) was 0%.
Take `CCN(CC)CCCC(C)NCc1ccc(OCc2ccccc2)c(OC)c1` (configuration not stated): the IFI was found to be 7.14%.
`O=C(NC1CCN(Cc2ccccc2)CC1)c1cc([N+](=O)[O-])cc([N+](=O)[O-])c1`: the IFI was found to be 1.5%.
Compound `Cc1ccc(NC(=O)CSc2nc3cc(C(=O)NCCCOC(C)C)ccc3c(=O)n2Cc2ccco2)cc1Cl` returned an IFI of 0%.
Regarding `N#CCSc1nc2c(sc(=S)n2-c2ccccc2)c(=O)n1Cc1ccco1`, the IFI worked out at 0%.
In the case of `CCN1CCN(c2ccc(Nc3c4ccccc4nc4ccccc34)cc2)CC1` it was 21.4%; in that of `CCCN(CCC)S(=O)(=O)c1cc(Br)cc2c1N(C(=O)C1CC1)CC2`, 0%; in that of `O=C1CSC(=Nc2ccc(F)c(Cl)c2)N1c1ccc(F)c(Cl)c1`, 0%.
As to `CC(C)CNC(=O)c1cnc(NCCCN2CCCCC2C)nc1Nc1ccccc1` (configuration not stated), the IFI came to 1.85%.
`CCOC(=O)C(=CNc1ccc(I)cn1)C(=O)OCC` yielded an IFI of 2.53%.
With `CN(CCCNc1ccnc2cc(Cl)ccc12)C(=O)COCc1ccccc1`, the IFI is 0.935%.
`CN(CCCNc1ccnc2cc(Cl)ccc12)C(=O)c1ccc(-c2ccccc2)cc1` came in with an IFI of 2.83%.
As to `COc1ccccc1N(CN1C(=O)c2ccc(Br)cc2C1=O)C(C)=O`, the IFI was 0%.
As to `CCCCN1C(=O)/C(=C/N(C(=O)CC)c2ccccc2)SC1=S`, the IFI worked out at 0%.
As for `O=C1CC(c2ccccc2)CC2=C1C(c1ccccc1F)Nc1ccccc1N2` (configuration not stated), the IFI came to 1.18%.
In the case of `Cc1c(C(=O)Nc2ccccc2)sc2ncn(Cc3ccccc3F)c(=O)c12` it was 0%; in that of `CC(C)c1nc(N2CCN(C(=O)Nc3ccccc3)CC2)c(C#N)c2c1COC(C)(C)C2`, 2.41%.
In the case of `COc1cc(NC(C)CCCN(Cc2ccc(Cl)cc2)C(=O)Nc2ccc(Cl)cc2Cl)c2ncccc2c1` (configuration not stated) it was 1.8%.
`Nc1ccnc2cc(Cl)ccc12` showed an IFI of 1.75%.
The compound `COc1ccc(CCN2C(=O)CC(C(=O)Nc3cccc(Cl)c3)SC2=Nc2ccccc2)cc1OC` (configuration not stated) gave an IFI of 0%.
The value for `COc1ccc(Cl)cc1-n1c(-c2cccnc2)n[nH]c1=S` was 0%.
In the case of `COc1ccc(-c2csc3nc(COc4cccc(C)c4)nn23)c(O)c1` it was 0%; in that of `Cc1oc2c(c1C(=O)N1CCCC1)C(=O)c1ccccc1C2=O`, 6.67%.
The compound `CCN1/C(=C/c2sc3ccccc3[n+]2CC)C=Cc2cc(NC(C)=O)ccc21` came in with an IFI of 7.69%.
Regarding `CC(C)CN1C(=O)c2ccccc2C(C(=O)Nc2cccc(Cl)c2)C1c1cccs1` (configuration not stated), the IFI was 6.25%.
In turn, `CCOc1ccc(CN(C(=O)COc2ccc(Cl)cc2)C(C)CCCN(CC)CC)cc1` (configuration not stated) gave an IFI of 2.7%.
`CC(C)(CCl)C(=O)NCCCCNc1ccnc2cc(Cl)ccc12` gave an IFI of 1.87%.
In turn, `CC(C)(C)CC(C)(C)Nc1c(-c2ccccc2OC(=O)c2cccc(Br)c2)nc2ccccn12` yielded an IFI of 4.72%.
Compound `CCCN1CCC(NC2CCCc3c2[nH]c2ccc([N+](=O)[O-])cc32)CC1` (configuration not stated) had an IFI of 8.33%.
Compound `Cc1ccc(-c2cc(C(F)(F)F)n3ncc(C(=O)Nc4cc(Cl)ccc4O)c3n2)cc1` gave an IFI of 4.65%.
For the compound `Clc1ccc(C[n+]2cc(-c3ccccc3)n3c2CCC3)cc1Cl`, the IFI was 3.77%.
For `CCN(c1ccccc1)S(=O)(=O)c1ccc(F)c(C(=O)Nc2c(C)cccc2C)c1`, the IFI was 0%.
With `COC(=O)c1ccc(S(=O)(=O)N2CCC3(CC2)Nc2ccccc2-n2cccc23)cc1`, the IFI was 0%.
As to `Cn1c(=O)n(C)c2cc(NC(=O)CCl)ccc21`, the IFI is 0%.
The value for `CC(CNC(=O)c1cn(C2CCCCC2)cc(C(=O)NC(C)(C)C)c1=O)c1ccccc1` (configuration not stated) was 0.99%; that for `COc1cc(OC)cc(C(=O)N2CCC(C(=O)Nc3cccc4ccccc34)CC2)c1` was 1.92%; that for `O=C(NN=Cc1ccncc1)c1cc(-c2cccc([N+](=O)[O-])c2)[nH]n1` was 0%.
Compound `CCc1noc(C)c1C(=O)NCCN1Cc2ccccc2OC(c2ccsc2)C1` (configuration not stated) gave an IFI of 0%.
As to `Cc1ccc2nc(-c3ccccc3)cc(C(=O)Nc3ccc(Cl)cc3)c2c1`, the IFI was 3.08%.
In the case of `Clc1ccc(-c2c[n+](Cc3ccccc3Cl)c3n2CCC3)cc1Cl` it was 7.32%; in that of `O=C1CN(C(=O)CC2CCCCC2)C(c2ccccc2)c2cc(Cl)ccc2N1` (configuration not stated), 2.27%.
On to `N#Cc1ccccc1Cn1ccc(=NCc2ccccc2)cc1`, for which the IFI came to 0%.
In the case of `CCN1/C(=C/c2cccc[n+]2C)C=Cc2cc(C)ccc21` it was 15.4%.
The compound `COc1ccc(-c2csc3ncn(N)c(=O)c23)cc1` registered an IFI of 0%.
Take `COc1cccc(C2Sc3ccccc3NC3=C2C(=O)c2ccccc23)c1` (configuration not stated): the IFI turned out to be 3.57%.
Take `O=C(Nc1cnc2ccccc2c1)c1cccc(-n2cnnn2)c1`: the IFI amounted to 7.21%.
In turn, `OCC1CCCCN1Cc1cc(-c2ccccc2)ccc1O` (configuration not stated) showed an IFI of 0.84%.
For the compound `Fc1cc(F)c(C2SCCN2C(=S)Nc2cccc(C(F)(F)F)c2)c(F)c1` (configuration not stated), the IFI was found to be 0%.
`Oc1ccc(-c2cncc(NCc3ccccc3)n2)cc1` returned an IFI of 0%.
`N=c1n(Cc2ccccc2)c2ccccc2n1CC(O)c1ccc(Br)cc1` (configuration not stated) registered an IFI of 0%.
On to `CCN(CC)CCNc1ccnc2cc3ccccc3cc12`, for which the IFI amounted to 7.45%.
Compound `O=C(c1ccc2nc(N3CCCCC3)sc2c1)N1CCN(Cc2ccccc2)CC1` showed an IFI of 0%.
Consider `CC1CCc2c(sc(NC(=O)c3ccccc3F)c2C(=O)NCc2ccccc2)C1` (configuration not stated), for which the IFI was 0%.
The compound `Cc1cc2c(cc1S(=O)(=O)N(C)C1CCCCC1)OCC(=O)N2` came in with an IFI of 0%.
The value for `Cc1ccc(S(=O)(=O)Nc2ccc(C(=O)NCCC(C)C)cc2)cc1` was 0%; that for `CCc1ccc(C=NNC(=O)COc2ccc3c(c2)OCO3)cc1` was 0%; that for `COc1ccc(OCCOCCN2CCN(C)CC2)cc1` was 0%.
`Cc1occc1C(=O)NN=C/C(Cl)=C/c1ccccc1` showed an IFI of 7.69%.
The compound `Cc1cccc(NC2=NC(N)=NC(C)(C)N2)c1` had an IFI of 0%.
In the case of `CCc1ccc(CN2CCC(O)(c3ccc4oc(C(=O)Nc5ccc6c(c5)OCO6)cc4c3)CC2)cc1` it was 6.9%; in that of `COc1ccccc1NC1=CC(=NS(=O)(=O)c2ccc(F)cc2)c2ccccc2C1=O`, 15.4%.
Compound `O=c1c2ccccc2[nH]c2cc(Cl)ccc12` came in with an IFI of 2.7%.
Regarding `CCCCOc1ccc(/C=C(/C#N)c2nc(-c3ccc(-c4ccccc4)cc3)cs2)cc1`, the IFI was found to be 0%.
For the compound `COc1cc(NC(C)CCCN(Cc2ccc(F)cc2)C(=O)CCc2ccccc2)c2ncccc2c1` (configuration not stated), the IFI turned out to be 1.71%.
For the compound `Cc1cc(/C=C2\SC(=Nc3ccccc3)N(C3CCCCC3)C2=O)c(C)n1-c1ccc(Br)cc1`, the IFI is 1.18%.
The value for `Cc1c2ccccc2cc(Cc2ccccc2)[n+]1C` was 6.3%; that for `COc1ccc(/C=C2\N=C(c3ccc(Cl)cc3)N(c3ccccc3)C2=O)cc1OC` was 0%.
In the case of `Cc1c(C(=O)NCCN2CCCC2)cnn1-c1ncc2c(n1)-c1ccccc1SC2`, the IFI stood at 2.59%.
With `c1ccc2cc3c(Nc4ccc(N5CCOCC5)cc4)ccnc3cc2c1`, the IFI was 0%.
`Cc1ccc(C2CC3=Nc4ccccc4N(C(=O)C(F)(F)F)C(c4ccc(OCc5ccccc5)cc4)C3=C(O)C2)cc1` (configuration not stated) yielded an IFI of 2.44%.
In turn, `Nc1nc(N)c2cc(S(=O)(=O)N3CCOCC3)ccc2n1` registered an IFI of 9.38%.
The compound `CCCCCCN(C(=O)COc1ccccc1)C(CC)c1nc2ccccc2c(=O)n1-c1cccc(Cl)c1` (configuration not stated) gave an IFI of 0.935%.
`Cc1ccc(Nc2cc(C)nc(NCc3ccccc3)n2)c(C)c1` came in with an IFI of 10.4%.
In the case of `COc1ccc(C)cc1Nc1nc(N)c2cc(OC)c(OC)cc2n1`, the IFI turned out to be 0%.
Compound `CN(C)CCNc1ncnc2c1[nH]c1ccc(Cl)cc12` registered an IFI of 7.84%.
The compound `CN(C)CCCNc1ncnc2c1[nH]c1ccc(Br)cc12` gave an IFI of 4%.
In the case of `O=C(Nc1ccncc1)Nc1cccc(NC(=O)Nc2ccncc2)c1` it was 0%; in that of `Cc1cccc(CN2CCC(CNC(=S)Nc3ccc4nc(N5CCN(C)CC5)cc(C)c4c3)CC2)c1`, 8.33%; in that of `Cc1ccn2c(NC(C)(C)CC(C)(C)C)c(-c3ccccc3OC(=O)c3ccc(F)cc3)nc2c1`, 2.8%.
In turn, `O=C(C1CC1)N1CCc2cc(Br)cc(S(=O)(=O)N3CCCCCC3)c21` had an IFI of 0%.
With `CCCN1CCC(NC(c2ccccc2)c2ccc(Cl)cc2)CC1` (configuration not stated), the IFI came to 1.61%.
`CCNc1nc(NC(C)(C)C)nc(N2CCCC2)n1` yielded an IFI of 0%.
On to `Cc1cccc(Nc2c3c(c(C#N)c4nc5ccccc5n24)CCC3)c1`, for which the IFI amounted to 0%.
The compound `CCC(=O)N1CCN(C(=O)c2ccc(C)cc2)C1` came in with an IFI of 0%.
`CN1CCN(C(=S)NC(=O)/C=C/c2ccc(F)cc2)CC1` displayed an IFI of 0%.
The compound `CCCCCN(C(=O)c1ccc(C(C)(C)C)cc1)C(CC)c1nc2ccccc2c(=O)n1-c1ccccc1OC` (configuration not stated) gave an IFI of 0%.
In the case of `Cc1ccc(OCCCCN2CCOCC2)c([N+](=O)[O-])c1` it was 0%.
